Measurements taken from the supplement of paper PMC8821664.
Counter-ions that a name gives are not always drawn. Some of the results follow. Single values are uncertain, as repeats are few or missing.
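Further: monoclonal Beas-2B line stably carrying CMV promoter-driven AQP5-HiBiT, 5,000 cells per well in 384-well plates, lytic HiBiT plus LgBiT NanoLuc luminescence, FDA-approved drug library screen.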

What follows are compounds tested on Beas-2B AQP5-HiBiT reporter cells (assay: AQP5-HiBiT luminescence relative to vehicle (ratio to vehicle); higher = higher AQP5-HiBiT protein abundance). Conditions: 10 µM; 18 h.
`CC(C)NCC(O)COc1cccc2[nH]ccc12` (stereo not given) [Pindolol] was tested, and the AQP5-HiBiT luminescence was 0.693.
Work on `C[C@]12CC[C@H](O)CC1=CC[C@@H]1[C@@H]2CC[C@]2(C)C(c3cccnc3)=CC[C@@H]12` [Abiraterone] yielded an AQP5-HiBiT luminescence of 0.627.
For `COc1ccc(OC)c(C(O)CNC(=O)CN)c1` (stereo not given) [Midodrine hydrochloride], the AQP5-HiBiT luminescence was 1.02.
In the case of `Nc1nc(F)nc2c1ncn2[C@@H]1O[C@H](CO)[C@@H](O)[C@@H]1O` [Fludarabine], the AQP5-HiBiT luminescence is reported as 1.04.
`CCn1nc(C(=O)O)c(=O)c2cc3c(cc21)OCO3` [Cinoxacin] was tested, and the AQP5-HiBiT luminescence was 1.32.
`CC1(C)S[C@@H]2[C@H](NC(=O)C(C(=O)O)c3ccccc3)C(=O)N2[C@H]1C(=O)O` (stereo not given in full) [Carbenicillin disodium] was tested, and the AQP5-HiBiT luminescence was 1.09.
`CC[C@H]1OC(=O)[C@H](C)[C@@H](O[C@H]2C[C@@](C)(OC)[C@@H](O)[C@H](C)O2)[C@H](C)[C@@H](O[C@@H]2O[C@H](C)C[C@H](N(C)C)[C@H]2O)[C@](C)(O)C[C@@H](C)CN(C)[C@H](C)[C@@H](O)[C@]1(C)O` [Azithromycin dihydrate] showed an AQP5-HiBiT luminescence of 2.32.
`Cc1ccc(C)c(OCCCC(C)(C)C(=O)O)c1` [Gemfibrozil] gave an AQP5-HiBiT luminescence of 0.591.
With `O=S(=O)(O)CCSSCCS(=O)(=O)O` [Dimesna] the AQP5-HiBiT luminescence was 0.661.
`CCc1cc2c(cc1CC)CC(NC[C@H](O)c1ccc(O)c3[nH]c(=O)ccc13)C2` [Indacaterol maleate] gave an AQP5-HiBiT luminescence of 1.15.
